The whole screen tested about 44,000 compounds, of which about 340 (0.77%) were called active. Another 5% or so got no clear call; they are omitted. Calls come from the whole dose curve; as a rule, active = well fitted inhibition curve with a large enough effect; inconclusive = small, poorly fitted or top-dose-only effect; inactive = flat fitted curve, though single readings scatter. Some of the results follow.
Test: Acumen qHTS Assay for Inhibitors of the mTORC1 Signaling Pathway in MEF (Tsc2-/-, p53-/-) Cells: Sytravon;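 note: plate controls were DMSO for no effect and rapamycin for full effect; nearly all actives have a fitted effect of over 50% in size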
Settings: phospho-rpS6 immunofluorescence/PI, 24 h; series mostly up to 38.3 µM; activity change, negative = inhibition: at the top concentration
How it was run: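 Plate MEFs (Tsc2-/-, p53-/-, empty vector) in DMEM/10% FBS; after 24 h add compound, incubate 24 h at 37 degree Celsius; fix in PFA/TX-100, block, stain phospho-rpS6 and 10 uM PI; scan at 488 nm; report % positive cells.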

Compound | activity change, negative = inhibition
COc1cc(CNC(=O)c2cc(-c3ccccc3)n[nH]2)cc(OC)c1OC | inactive: 2.34%
CCc1nn(CC(=O)NCCc2ccc(OC)cc2OC)c(=O)c2cc3sccc3n12 | inactive: -0.7%
COc1cccc(CNC(=O)Cn2cc3c(n2)-c2c(oc(C(=O)N4CCCC4)c2C)CC3)c1OC | inactive: 2.16%
CCCc1noc(-c2ccc(N3CCCCC3)c([N+](=O)[O-])c2)n1 | inactive: 2.87%
COc1cc(NC(=O)Cn2ncc3c(=O)oc4ccccc4c32)cc(OC)c1OC | inactive: -14.5%
Cc1nc2c(cnn2-c2ccccc2Cl)c(=O)n1-c1ccc(C(C)C)cc1 | inactive: -16.9%
CCc1ccc(S(=O)(=O)c2nnn3c2nc(NCCc2ccccc2)c2sccc23)cc1 | inactive: -5.15%
CN(C)S(=O)(=O)N(CC(=O)NCCSCc1ccccc1Cl)c1ccccc1 | inactive: -0.0873%
COc1cccc(-c2nc(SCC(=O)Nc3ccc4c(c3)OCO4)c(-c3ccccc3)[nH]2)c1 | inactive: -19.8%
Cc1cccc(N2CCN(S(=O)(=O)c3cc(Br)cc4c3N(C(=O)C3CC3)CC4)CC2C)c1 (configuration not stated) | inactive: 2.34%
COc1ccc(CCn2cc3c(c2-c2ccccc2Br)c(=O)n(C)c(=O)n3C)cc1OC | inactive: -11.8%
COc1ccc2c(Sc3ccccc3)c(C(=O)NCc3cccc(OC)c3OC)[nH]c2c1 | inactive: -1.06%
CCOc1ccc(CCNC(=O)CCCc2nnc3n(CC(C)C)c(=O)c4sccc4n23)cc1 | inactive: -1.81%
CCOC(=O)c1cc(S(=O)(=O)Nc2ccc(OC)c(Cl)c2)[nH]n1 | inactive: 1.1%
CCOC(=O)C1(C)C=C(Nc2ccc(C(N)=O)cc2)C(=O)N1c1ccccc1 (configuration not stated) | inactive: -8.42%
CN1C(=O)Cc2cc(S(=O)(=O)CCC(=O)Nc3cccc(C(F)(F)F)c3)ccc21 | inactive: -10.6%
CC(C)OCCCn1c(SCc2cccc(Br)c2)nc2c(sc3ccccc32)c1=O | inactive: -1.18%
COCCNC(=O)c1ccc2c(c1)N(Cc1cccc(Cl)c1)C(=O)c1ccccc1S2(=O)=O | inactive: -6.15%
Cc1ccc(OC(=O)c2cc(-c3ccccc3)nc3ccc(C)cc23)cc1 | inactive: 2.64%
COc1ccccc1Oc1nc2c(c(=O)n(C)c(=O)n2C)n1Cc1cccc(Br)c1 | inactive: -18.2%
CC(=O)Nc1ccc(S(=O)(=O)Nc2cccc(-c3ccc(N4CCC(C)CC4)nn3)c2)cc1 | inactive: -0.635%
CCN(CC)S(=O)(=O)c1ccc2c(c1)c(=O)c(C(=O)NCc1ccc(Cl)cc1)cn2C | inactive: -2.17%
COc1ccc(CC(=O)NCc2ccc3c(c2)CCN3C(C)=O)cc1OC | inactive: -5.24%
CCOC(=O)C1CCN(C(=O)c2ccc3c(c2)sc2nc(-c4ccccc4)cn23)CC1 | inactive: 8.22%

Compound | activity change, negative = inhibition
Cc1c(C(=O)N(C)C)sc2c1c(=O)n(-c1ccc(F)cc1)c(=O)n2Cc1cc(=O)n2ccccc2n1 | inactive: -8.98%
Nc1c(C(=O)Nc2ccc(Cl)c(C(F)(F)F)c2)sc2nc(-c3ccncc3)ccc12 | inactive: 0.197%
COc1ccc(C(=O)COC(=O)c2cc(-c3ccccc3)nc3c(C)cccc23)cc1 | inactive: 5.88%
O=C1CCc2cc(S(=O)(=O)NCc3ccc(F)cc3)cc3c2N1CC3 | inactive: 7.14%
Cc1ccc(Cc2nc3ccccc3nc2SCC(=O)N2CCN(c3ccccc3F)CC2)cc1 | inactive: -7.24%
CC(=O)N1CCCc2ccc(NS(=O)(=O)c3ccc(C)c(C)c3)cc21 | inactive: 21.9%
CCC(=O)N1CCc2cc(Br)cc(S(=O)(=O)N3CCCC(C(=O)NCc4cccc(OC)c4)C3)c21 (configuration not stated) | inactive: -2.69%
Cc1nc2c(-c3ccccc3)c(C)nn2c(C)c1CCC(=O)N1CCN(c2ccccc2)CC1 | inactive: 2.17%
Cn1nc(C(=O)N2CCN(c3cccc(Cl)c3)CC2)c2c1-c1ccccc1S(=O)(=O)C2 | inactive: 11.5%
CCCCCn1c(NCc2ccccc2OC)nc2ccccc21 | inactive: -5.37%
CCCS(=O)(=O)c1ncc(Cl)c(C(=O)Nc2c(C(=O)c3ccccc3)oc3ccccc23)n1 | inactive: 1.72%
CCc1cc2c(cc3c(=O)n(CC(=O)N4CCC(C)CC4)nc(CC)n32)s1 | inactive: 0.318%
CCc1ccc(-n2c(=O)c3ccc(C(=O)NCCc4ccccc4)cc3n(CC(N)=O)c2=O)cc1 | inactive: -6.45%
CCS(=O)(=O)N1CCc2cc(C(=O)Nc3ccc(C)c(Cl)c3)ccc21 | inactive: 0.0617%
Cc1ccc2c(c1)C(c1ccccc1)N(C(=O)c1ccc(OC(C)C)cc1)CC(=O)N2 (configuration not stated) | inactive: -10.6%
Cc1cccc(CCNC(=O)Cn2ncc3c(=O)oc4ccccc4c32)c1 | inactive: 1.94%
Cc1c2cnn(-c3ccccc3)c(=O)c2c(C)n1CC(=O)NCc1ccccc1Br | inactive: 0.155%
CC(=O)c1cccc(NC(=O)C(Cc2ccccc2)NS(=O)(=O)c2ccc(Br)s2)c1 (configuration not stated) | inactive: 2.48%
O=C(Nc1ccc(Cl)cc1)N1CCC(CN2CCCC2)CC1 | inactive: 1.57%
COc1ccc(Cn2cc(C(=O)c3ccc(OC)cc3)c(=O)c3cc4c(cc32)OCCO4)cc1 | inactive: -19.5%
COc1ccc(OC)c(NC(=O)c2cn3c4c(ccc(Cl)c4c2=O)OC(C)C3)c1 (configuration not stated) | inactive: -0.137%
COc1c(Cl)cc(Cl)cc1/C=C(\C#N)c1nc2ccccc2[nH]1 | inactive: -9.17%
CCN(CCCNC(=O)c1nn(-c2ccc(C)cc2)c(=O)c2c1c1ccccc1n2C)c1ccccc1 | inactive: -8.35%
